Assay results as given in a compilation of properties of binary mixtures (doi:10.1016/j.jtice.2022.104275).
The densities may have been worked out from excess volumes.

Test: xn = mol fraction of the nth substance listed
Details: 100 kPa

COCC[N+]1(C)CCCC1.O=S(=O)([N-]S(=O)(=O)C(F)(F)F)C(F)(F)F + CC#N
mass density [kg/m3]
Details	x1 = 0.1	x1 = 0.2	x1 = 0.3	x1 = 0.4001	x1 = 0.5	x1 = 0.6	x1 = 0.7	x1 = 0.7999	x1 = 0.8999	x1 = 1
288.15 K	1054.3	1191.3	1272	1326	1365.1	1393.8	–	1435.4	1450.2	–
293.15 K	1049	1186.1	1266.9	1320.9	–	1388.9	–	–	1445.4	1458.2
298.15 K	1043.6	1180.8	1261.8	–	1355.2	1384	1407.9	1425.8	1440.7	1453.4
303.15 K	1038.2	1175.6	1256.7	1310.8	1350.2	–	–	1421	1435.9	1448.7
308.15 K	–	1170.4	1251.6	1305.9	1345.3	–	1398.3	1416.2	1431.2	–
313.15 K	1027.4	1165.1	1246.5	1300.9	–	1369.4	1393.5	–	1426.4	1439.3
318.15 K	1022	1159.9	1241.4	1295.9	1335.5	1364.6	1388.7	1406.7	1421.7	–

CC#N + COCC[N+]1(C)CCCC1.O=S(=O)([N-]S(=O)(=O)C(F)(F)F)C(F)(F)F
x2 = 0
Details	mass density [kg/m3]
288.15 K	787.5
298.15 K	776.8
303.15 K	771.3
313.15 K	760.4
318.15 K	754.8

CC#N + C=CC[n+]1ccn(C)c1.O=S(=O)([N-]S(=O)(=O)C(F)(F)F)C(F)(F)F
x2 = 0
Details	mass density [kg/m3]
288.15 K	787.5
293.15 K	782.2
298.15 K	776.8
303.15 K	771.3
308.15 K	765.9
313.15 K	760.4
318.15 K	754.8

COCC[N+]1(C)CCCC1.N#C[N-]C#N + O
mass density [kg/m3]
Details	288.15 K	293.15 K	298.15 K	303.15 K	308.15 K	313.15 K	318.15 K
x1 = 0.9189	1213.1	1209.9	–	1203.3	1200.1	1196.8	–
x1 = 0.9331	–	–	1207.2	1203.9	1200.6	1197.4	1194.2
x1 = 0.9509	1214.2	1210.9	1207.7	–	–	1197.9	1194.7
x1 = 0.9661	1214.6	–	1208.1	–	1201.6	–	1195.1
x1 = 1	1215.5	1212.2	1209	–	1202.5	–	1196
x2 = 0.0172	1215	1211.7	1208.4	1205.2	1201.9	1198.7	–

C=CC[n+]1ccn(C)c1.O=S(=O)([N-]S(=O)(=O)C(F)(F)F)C(F)(F)F + CC#N
mass density [kg/m3]
Details	x1 = 0.1	x1 = 0.2	x1 = 0.3	x1 = 0.4	x1 = 0.499	x1 = 0.6	x1 = 0.7003	x1 = 0.7998	x1 = 0.9003	x1 = 1
288.15 K	1057.2	–	1291.7	1353	1397.5	1431.5	1457.9	1478.8	1496.1	–
293.15 K	1051.7	1196.3	1286.4	1347.7	1392.2	–	1452.7	1473.7	1490.9	1505.4
298.15 K	1046.2	–	1281	–	1387	1421.1	1447.5	–	1485.8	1500.3
303.15 K	–	1185.4	1275.6	1337.1	1381.7	1415.9	1442.3	–	1480.7	1495.3
308.15 K	1035.1	–	1270.3	1331.8	–	1410.7	–	1458.3	1475.7	–
313.15 K	–	1174.5	–	1326.5	1371.3	1405.5	–	1453.2	–	1485.2
318.15 K	1024	1169	1259.6	–	1366.1	1400.4	1427	1448.2	1465.6	1480.2
